About 1,200 (2.5%) of roughly 48,000 compounds were called active. About 2% were inconclusive and are not listed.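 Rule for the calls: active = activation of at least 60% and not above a set upper limit (about 1 call in 100 departs from these limits); inconclusive = activation of 40% to 60%, or above that upper limit; inactive = activation under 40%.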 Some of the results follow.

Sequence of UniProt O75388 (O75388 whole entry, looked up): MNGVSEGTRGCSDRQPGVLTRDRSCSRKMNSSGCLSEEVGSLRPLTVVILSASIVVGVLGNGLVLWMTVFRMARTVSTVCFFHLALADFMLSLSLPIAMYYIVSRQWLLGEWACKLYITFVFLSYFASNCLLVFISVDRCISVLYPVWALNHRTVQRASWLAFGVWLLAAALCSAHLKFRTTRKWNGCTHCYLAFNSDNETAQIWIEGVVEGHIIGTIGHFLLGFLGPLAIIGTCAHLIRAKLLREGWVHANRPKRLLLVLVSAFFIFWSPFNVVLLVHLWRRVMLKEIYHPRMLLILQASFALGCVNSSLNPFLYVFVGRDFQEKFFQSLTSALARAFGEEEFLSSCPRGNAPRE

The target in this assay is Probable G-protein coupled receptor 32 (Homo sapiens) (UniProt O75388). The assay can be described thus: qHTS for Agonists of Human Resolvin D1 Receptor DRV1. Note: 0% is about no effect. The settings on record: CHO-K1 GPR32 beta-arrestin PathHunter luminescence, 90 min; at 76.9 µM; active compounds read high; zero percent set by DMSO-only wells. Summed up:
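CHO-K1 cells stably expressing ProLink-tagged GPR32 and Enzyme Activator-tagged beta-arrestin were seeded at 2,500 cells/well overnight, exposed to compounds for 90 min at 37 °C, then read by beta-Gal complementation chemiluminescence after 1 h detection reagent.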
In general terms: In qHTS, concentration-response curves come from the screen itself.
For `CCOc1ccc(CCNC(=O)c2ccc3c(c2)N(Cc2cccc(Cl)c2)C(=O)c2ccccc2S3(=O)=O)cc1OCC`, the activation is inactive: -22.8%.

For `CCOC(=O)N1CCc2c(sc(NCc3sccc3C)c2C(=O)Nc2ccccc2OCC)C1`, the activation is active: 62.6%.

On to `CCOC(=O)c1ccc(NC(=O)CN2C(=O)CC(c3ccc(C)c(C)c3)=Nc3ccccc32)cc1`, for which the activation was inactive: -16.4%.

Regarding `Cc1c(Cl)cccc1NC(=O)NCCOCCn1c(=O)oc2ccccc21`, the activation was inactive: -27.4%.

For `Cc1cc(-c2nc3ccccc3s2)ccc1NC(=O)c1cc(Cl)ccc1Cl`, the activation is inactive: -19.6%.

As to `COc1ccc2c(C)c(CCC(=O)NCc3ccc(OC)c(OC)c3)c(=O)oc2c1`, the activation is inactive: 1.65%.

Regarding `Cc1sc(NC(=O)COc2ccc(C(C)(C)C)cc2)c(C(=O)OC(C)C)c1C`, the activation was inactive: -8.7%.

Take `CCOc1cc(C2c3c(oc4ccccc4c3=O)C(=O)N2Cc2ccccc2Cl)ccc1O` (configuration not stated): the activation is inactive: -4.87%.

In the case of `CCc1ccc(N2C(=O)CS(=O)(=O)C23C(=O)N(Cc2ccccc2F)c2ccccc23)cc1` (configuration not stated), the activation was inactive: -22.9%.

Regarding `CCN1CCN(C(=O)c2cnn(-c3cccc(C)c3)c2C2CCN(C(=O)OC(C)(C)C)CC2)CC1`, the activation is inactive: -12.9%.

Turning to `COc1cccc(CNC(=O)c2cccn2-c2nnc(N3CCCC3)s2)c1`, the activation was inactive: 1.66%.

Regarding `COc1ccc(C2CC(=O)c3c([nH]c(C(=O)OCCOc4ccccc4)c3C)C2)cc1OC` (configuration not stated), the activation was inactive: 29.6%.

As for `CCn1cc(C(=O)N2CCN(c3ccccc3)CC2)c(=O)c2cc(S(=O)(=O)N3CCC(C)CC3)ccc21`, the activation is inactive: -12.3%.

With `Cc1onc(-c2c(Cl)cccc2Cl)c1C(=O)N[C@@H]1C(=O)N2[C@@H]1SC(C)(C)[C@@H]2C(=O)O`, the activation was inactive: -29.1%.

On to `CCOc1ccc(NC(=O)c2cn3c4c(ccc(Cl)c4c2=O)OC(C)C3)cc1` (configuration not stated), for which the activation was inactive: 11%.

As to `COc1cc(-c2noc(-c3cc(C)[nH]n3)n2)cc(OC)c1OC`, the activation is inactive: -2.06%.

`COc1cccc(NC(=O)C2CCN(S(=O)(=O)c3cc(-c4noc(C)n4)ccc3C)CC2)c1`: the activation is inactive: -7.61%.

`COc1ccc(NC(=O)N(Cc2ccco2)C2CCN(C(C)=O)CC2)c(OC)c1`: the activation was inactive: -3.89%.

As for `COc1ccc(CNC(=O)C2CCN(S(=O)(=O)c3cn(C)cn3)CC2)cc1`, the activation is inactive: -11.1%.

For the molecule `N[C@@H](CCC(=O)N[C@H](CSN=O)C(=O)NCC(=O)O)C(=O)O`, the activation is inactive: -3.14%.

With `Cc1ccc(S(=O)(=O)c2nc(-c3ccccc3)oc2SCC(=O)NC2CCCCC2)cc1`, the activation is inactive: -8.29%.

With `COc1cccc(C2Nc3ccccc3-c3nnc(SCc4ccccc4)nc3O2)c1OC` (configuration not stated), the activation was inactive: -1.68%.

Source of the values: PubChem BioAssay AID1346428 (National Center for Advancing Translational Sciences (NCATS), 2018).
